Reference: the supplement of paper PMC10369915
Some of the results follow. Cut-off read from the data, not from the text of the source: active = 3.2 or more and inactive = the rest. Most of these values are background signal.

How the values were obtained:
Test in all cases: enrichment score (SH2-bound / input frequency) (ratio); bacterial display of known human phosphotyrosine sites (pTyr-Var adds point mutants) read by sequencing; higher = stronger binding; tyrosines were phosphorylated by kinases first
Conditions in all cases: peptide library: pTyr-Var
SHP2 C-SH2 domain E139D = target: SHP2 C-SH2 domain E139D
[1] = target: SHP2 C-SH2 domain wild-type
SHP2 N-SH2 domain L43F = target: SHP2 N-SH2 domain L43F
SHP2 N-SH2 domain T42A = target: SHP2 N-SH2 domain T42A
SHP2 N-SH2 domain T52S = target: SHP2 N-SH2 domain T52S
[2] = target: SHP2 N-SH2 domain wild-type

Measured: enrichment score
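Note: displayed peptides selected on beads carrying the immobilized SH2 domain, with library peptides lacking any tyrosine serving as negative controls.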

SVTCTYSRALN [TP53_Y126_P128R]
inactive: SHP2 C-SH2 domain E139D 0.74 | [1] 1.22 | SHP2 N-SH2 domain L43F 0.755 | SHP2 N-SH2 domain T42A 0.737 | SHP2 N-SH2 domain T52S 0.718 | [2] 1.26

QSAGQYSSQGL [TNNI3K_Y788]
inactive: SHP2 C-SH2 domain E139D 0.613 | [1] 0.671 | SHP2 N-SH2 domain L43F 0.614 | SHP2 N-SH2 domain T42A 0.42 | SHP2 N-SH2 domain T52S 0.506 | [2] 0.634

SVNCTYSPALN [TP53_Y126_T123N]
inactive: SHP2 C-SH2 domain E139D 0.768 | [1] 1.15 | SHP2 N-SH2 domain L43F 0.692 | SHP2 N-SH2 domain T42A 0.635 | SHP2 N-SH2 domain T52S 0.811 | [2] 1.08

LWQTIYNLEAE [TNNT2_Y251_S249T]
inactive: SHP2 C-SH2 domain E139D 1.67 | [1] 1.63 | SHP2 N-SH2 domain L43F 1.67 | SHP2 N-SH2 domain T42A 1.82 | SHP2 N-SH2 domain T52S 1.75 | [2] 1.58

SVTCTYSLALN [TP53_Y126_P128L]
inactive: SHP2 C-SH2 domain E139D 0.979 | [1] 1.14 | SHP2 N-SH2 domain L43F 0.914 | SHP2 N-SH2 domain T42A 0.628 | SHP2 N-SH2 domain T52S 0.824 | [2] 1.3

SVTCTYSPGLN [TP53_Y126_A129G]
inactive: SHP2 C-SH2 domain E139D 1.01 | [1] 1.76 | SHP2 N-SH2 domain L43F 1.53 | SHP2 N-SH2 domain T42A 1.14 | SHP2 N-SH2 domain T52S 1.05 | [2] 1.95

SGGMDYGMVGG [TNRC6B_Y1382]
inactive: SHP2 C-SH2 domain E139D 0.706 | [1] 0.658 | SHP2 N-SH2 domain L43F 0.814 | SHP2 N-SH2 domain T42A 0.591 | SHP2 N-SH2 domain T52S 0.634 | [2] 0.688

FFRRHYPLTTL [TNS4_Y644]
inactive: SHP2 C-SH2 domain E139D 0.353 | [1] 0.261 | SHP2 N-SH2 domain L43F 0.32 | SHP2 N-SH2 domain T42A 0.382 | SHP2 N-SH2 domain T52S 0.293 | [2] 0.328

FSPFDYQPCLA [TNS1_Y798_YF]
inactive: SHP2 C-SH2 domain E139D 0.992 | [1] 0.889 | SHP2 N-SH2 domain L43F 0.805 | SHP2 N-SH2 domain T42A 0.873 | SHP2 N-SH2 domain T52S 0.817 | [2] 0.901

FRTPGYREVVI [TNS2_Y673_A670T_YF]
inactive: SHP2 C-SH2 domain E139D 1.23 | [1] 1.08 | SHP2 N-SH2 domain L43F 1.57 | SHP2 N-SH2 domain T42A 1.4 | SHP2 N-SH2 domain T52S 1.92 | [2] 1.11

TGDFGYRAPGF [TNS2_Y668_YF]
inactive: SHP2 C-SH2 domain E139D 0.626 | [1] 0.6 | SHP2 N-SH2 domain L43F 0.575 | SHP2 N-SH2 domain T42A 0.45 | SHP2 N-SH2 domain T52S 0.629 | [2] 0.778

SVTCTYCPALN [TP53_Y126_S127C]
inactive: SHP2 N-SH2 domain T42A 2.43 | SHP2 N-SH2 domain T52S 3.07 | [2] 2.53
active: SHP2 C-SH2 domain E139D 3.26 | [1] 3.34 | SHP2 N-SH2 domain L43F 3.39

SVTCTYTPALN [TP53_Y126_S127T]
inactive: SHP2 C-SH2 domain E139D 0.506 | [1] 1.03 | SHP2 N-SH2 domain L43F 0.673 | SHP2 N-SH2 domain T42A 0.723 | SHP2 N-SH2 domain T52S 0.635 | [2] 1.2

PPGRSYSPCDY [TNS1_Y793_Y796C]
inactive: SHP2 C-SH2 domain E139D 0.972 | [1] 0.81 | SHP2 N-SH2 domain L43F 0.608 | SHP2 N-SH2 domain T42A 0.783 | SHP2 N-SH2 domain T52S 0.785 | [2] 0.722

RSFSPCDFQPC [TNS1_Y796_Y796C_YF]
inactive: SHP2 C-SH2 domain E139D 1.68 | [1] 1.59 | SHP2 N-SH2 domain L43F 1.73 | SHP2 N-SH2 domain T42A 1.77 | SHP2 N-SH2 domain T52S 1.84 | [2] 1.71

SVTCTYSPALH [TP53_Y126_N131H]
inactive: SHP2 C-SH2 domain E139D 0.803 | [1] 1.38 | SHP2 N-SH2 domain L43F 0.837 | SHP2 N-SH2 domain T42A 0.741 | SHP2 N-SH2 domain T52S 0.663 | [2] 1.38

SVTCTYFPALN [TP53_Y126_S127F]
inactive: SHP2 C-SH2 domain E139D 0.897 | [1] 1.44 | SHP2 N-SH2 domain L43F 1.19 | SHP2 N-SH2 domain T42A 0.808 | SHP2 N-SH2 domain T52S 0.896 | [2] 1.52

YSPYDYQPCLA [TNS1_Y798]
inactive: SHP2 C-SH2 domain E139D 0.864 | [1] 0.984 | SHP2 N-SH2 domain L43F 0.757 | SHP2 N-SH2 domain T42A 0.72 | SHP2 N-SH2 domain T52S 0.918 | [2] 1.06

RSYSPYDYQPC [TNS1_Y796]
inactive: SHP2 C-SH2 domain E139D 0.647 | [1] 0.6 | SHP2 N-SH2 domain L43F 0.541 | SHP2 N-SH2 domain T42A 0.557 | SHP2 N-SH2 domain T52S 0.498 | [2] 0.634

YRAPGYREVVI [TNS2_Y673]
inactive: SHP2 C-SH2 domain E139D 0.982 | [1] 0.746 | SHP2 N-SH2 domain L43F 1.06 | SHP2 N-SH2 domain T42A 0.955 | SHP2 N-SH2 domain T52S 1.28 | [2] 0.819

SVTCTYSPALY [TP53_Y126_N131Y]
inactive: SHP2 C-SH2 domain E139D 0.829 | [1] 1.22 | SHP2 N-SH2 domain L43F 0.991 | SHP2 N-SH2 domain T42A 0.777 | SHP2 N-SH2 domain T52S 0.806 | [2] 1.36

PPPPAYDDVAQ [TNK2_Y635]
inactive: SHP2 C-SH2 domain E139D 0.507 | [1] 0.47 | SHP2 N-SH2 domain L43F 0.54 | SHP2 N-SH2 domain T42A 0.598 | SHP2 N-SH2 domain T52S 0.53 | [2] 0.762

TGDFGYRAPGY [TNS2_Y668]
inactive: SHP2 C-SH2 domain E139D 0.416 | [1] 0.515 | SHP2 N-SH2 domain L43F 0.617 | SHP2 N-SH2 domain T42A 0.46 | SHP2 N-SH2 domain T52S 0.499 | [2] 0.633

TFGQVYKGRHV [TNIK_Y40_YF]
inactive: SHP2 C-SH2 domain E139D 0.932 | [1] 0.976 | SHP2 N-SH2 domain L43F 0.949 | SHP2 N-SH2 domain T42A 0.83 | SHP2 N-SH2 domain T52S 0.835 | [2] 1.1

LWQSIYNLEAE [TNNT2_Y251]
inactive: SHP2 C-SH2 domain E139D 2.03 | [1] 2.5 | SHP2 N-SH2 domain L43F 2.51 | SHP2 N-SH2 domain T42A 2.4 | SHP2 N-SH2 domain T52S 2.5 | [2] 2.67

RSYSPCDYQPC [TNS1_Y796_Y796C]
inactive: SHP2 C-SH2 domain E139D 2.5 | [1] 2.7 | SHP2 N-SH2 domain L43F 2.67 | SHP2 N-SH2 domain T42A 2.34 | SHP2 N-SH2 domain T52S 2.78 | [2] 2.53

GARGRYIMGGP [TNK1_Y277_V278I]
inactive: SHP2 C-SH2 domain E139D 0.476 | [1] 0.441 | SHP2 N-SH2 domain L43F 0.519 | SHP2 N-SH2 domain T42A 0.466 | SHP2 N-SH2 domain T52S 0.579 | [2] 0.604

FVTCTYSPALN [TP53_Y126_S121F]
inactive: SHP2 C-SH2 domain E139D 0.817 | [1] 1.04 | SHP2 N-SH2 domain L43F 0.787 | SHP2 N-SH2 domain T42A 0.5 | SHP2 N-SH2 domain T52S 0.66 | [2] 1.04

SVICTYSPALN [TP53_Y126_T123I]
inactive: SHP2 C-SH2 domain E139D 0.682 | [1] 1.07 | SHP2 N-SH2 domain L43F 0.848 | SHP2 N-SH2 domain T42A 0.581 | SHP2 N-SH2 domain T52S 0.749 | [2] 0.922

SVTSTYSPALN [TP53_Y126_C124S]
inactive: SHP2 C-SH2 domain E139D 0.6 | [1] 0.446 | SHP2 N-SH2 domain L43F 0.594 | SHP2 N-SH2 domain T42A 0.572 | SHP2 N-SH2 domain T52S 0.681 | [2] 0.758

SVTCTYSPTLN [TP53_Y126_A129T]
inactive: SHP2 C-SH2 domain E139D 1.03 | [1] 1.36 | SHP2 N-SH2 domain L43F 1.21 | SHP2 N-SH2 domain T42A 1.17 | SHP2 N-SH2 domain T52S 0.955 | [2] 1.82

SVTCTYSPAPN [TP53_Y126_L130P]
inactive: SHP2 C-SH2 domain E139D 0.945 | [1] 1.06 | SHP2 N-SH2 domain L43F 0.911 | SHP2 N-SH2 domain T42A 0.74 | SHP2 N-SH2 domain T52S 0.779 | [2] 1.44

TYGQVYKGPHV [TNIK_Y40_R43P]
inactive: SHP2 C-SH2 domain E139D 0.929 | [1] 0.851 | SHP2 N-SH2 domain L43F 0.73 | SHP2 N-SH2 domain T42A 0.745 | SHP2 N-SH2 domain T52S 0.776 | [2] 0.803

YSPCDYQPCLA [TNS1_Y798_Y796C]
inactive: SHP2 C-SH2 domain E139D 2.61 | [1] 2.51 | SHP2 N-SH2 domain L43F 2.98 | SHP2 N-SH2 domain T42A 2.25 | SHP2 N-SH2 domain T52S 2.6 | [2] 2.07

SVTCTYSPALN [TP53_Y126]
inactive: SHP2 C-SH2 domain E139D 0.858 | [1] 1.55 | SHP2 N-SH2 domain L43F 1.1 | SHP2 N-SH2 domain T42A 0.993 | SHP2 N-SH2 domain T52S 0.906 | [2] 1.54

SVTCTYSPALT [TP53_Y126_N131T]
inactive: SHP2 C-SH2 domain E139D 1.21 | [1] 1.57 | SHP2 N-SH2 domain L43F 1.13 | SHP2 N-SH2 domain T42A 1 | SHP2 N-SH2 domain T52S 0.709 | [2] 1.95

GGDGSYVSVPL [TNNI3K_Y425_S430L]
inactive: SHP2 C-SH2 domain E139D 0.573 | [1] 0.609 | SHP2 N-SH2 domain L43F 0.505 | SHP2 N-SH2 domain T42A 0.469 | SHP2 N-SH2 domain T52S 0.63 | [2] 0.727
